Test results as given in a collection of fitness landscapes (doi:10.1126/science.1257360).
The other results are listed elsewhere or left out.

B1: PhoQ; a variant is named by its letters at X, in order, P23837 (parent)
chain: MKKLLRLFFPLSLRVRFLLATAAVVLVLSLAYGMVALIGYSVSFDKTTFRLLRGESNLFYTLAKWENNKLHVELPENIDKQSPTMTLIYDENGQLLWAQRDVPWLMKMIQPDWLKSNGFHEIEADVNDTSLLLSGDHSIQQQLQEVREDDDDAEMTHSVAVNVYPATSRMPKLTIVVVDTIPVELKSSYMVWSWFIYVLSANLLLVIPLLWVAAWWSLRPIEALAKEVRELEEHNRELLNPATTRELTSLVRNLNRLLKSERERYDKYRTTLTDLTHSLKTPLXXLQXXLRSLRSEKMSVSDAEPVMLEQISRISQQIGYYLHRASMRGGTLLSRELHPVAPLLDNLTSALNKVYQRKGVNISLDISPEISFVGEQNDFVEVMGNVLDNACKYCLEFVEISARQTDEHLYIVVEDDGPGIPLSKREVIFDRGQRVDTLRPGQGVGLAVAREITEQYEGKIVAGESMLGGARMEVIFGRQHSAPKDE

Variants of: B1
Experiment: enrichment ratio after two sorts for PhoP signalling (ratio (wild type AVST 3.29)); higher = more functional
Conditions: with PhoP (E. coli)

Row | Variant | enrichment ratio
1 | KRCF | ≤ 0.25
2 | YSSW | ≤ 0.25
3 | ICYK | ≤ 0.25
4 | TMTI | 9.69
5 | LMEI | ≤ 0.25
6 | SAMD | ≤ 0.25
7 | DPQM | ≤ 0.25
8 | DVAV | ≤ 0.25
9 | LFSM | ≤ 0.25
10 | EYDQ | ≤ 0.25
11 | YDWG | ≤ 0.25
12 | VTAY | ≤ 0.25
13 | METS | 6.13
14 | DFCI | ≤ 0.25
15 | WEQH | ≤ 0.25
16 | IPRF | ≤ 0.25
17 | PHAP | ≤ 0.25
18 | PNCT | ≤ 0.25
19 | KPIM | ≤ 0.25
20 | LEKC | ≤ 0.25
21 | PNEL | ≤ 0.25

Row | Variant | enrichment ratio
22 | MCLE | 0.98
23 | FFYK | 0.359
24 | YRSR | ≤ 0.25
25 | YYND | ≤ 0.25
26 | PMDN | ≤ 0.25
27 | QIPK | ≤ 0.25
28 | FMKL | ≤ 0.25
29 | PQYD | ≤ 0.25
30 | ICDC | ≤ 0.25
31 | QAHR | ≤ 0.25
32 | FPYY | ≤ 0.25
33 | TYLL | 3.01
34 | YICG | 1.07
35 | FICK | ≤ 0.25
36 | AMGY | 0.284
37 | GPVM | ≤ 0.25
38 | MGHS | ≤ 0.25
39 | SQEH | ≤ 0.25
40 | IRST | ≤ 0.25
41 | VRST | ≤ 0.25
42 | KYEH | ≤ 0.25

Row | Variant | enrichment ratio
43 | HIKR | ≤ 0.25
44 | EDYG | ≤ 0.25
45 | YMRH | ≤ 0.25
46 | ISRG | ≤ 0.25
47 | AVSV | 7.85
48 | IIRL | ≤ 0.25
49 | KSHH | ≤ 0.25
50 | SCLY | 5.98
51 | NRIV | ≤ 0.25
52 | YHAN | ≤ 0.25
53 | MCNW | ≤ 0.25
54 | NSCQ | ≤ 0.25
55 | HDHF | ≤ 0.25
56 | WPCD | ≤ 0.25
57 | VACT | ≤ 0.25
58 | FRDM | ≤ 0.25
59 | VKRG | ≤ 0.25
60 | MGLG | 6.1
61 | YIGI | 0.304
62 | SNNI | 7.72
63 | MKRH | ≤ 0.25

Row | Variant | enrichment ratio
64 | TFCT | ≤ 0.25
65 | FCYQ | ≤ 0.25
66 | EIMP | ≤ 0.25
67 | DIGR | ≤ 0.25
68 | RSKK | ≤ 0.25
69 | MDPT | ≤ 0.25
70 | GCPC | ≤ 0.25
71 | MDWP | ≤ 0.25
72 | IGSF | ≤ 0.25
73 | NPRM | ≤ 0.25
74 | KKNM | ≤ 0.25
75 | QRLY | ≤ 0.25
76 | EISC | ≤ 0.25
77 | EQYG | ≤ 0.25
78 | MSEI | ≤ 0.25
79 | AHRN | ≤ 0.25
80 | VKQT | ≤ 0.25
81 | TCSQ | 10.7
82 | WGFC | ≤ 0.25
83 | NYTH | ≤ 0.25
84 | PIKG | ≤ 0.25
